Source: PubChem BioAssay AID2147 (National Center for Advancing Translational Sciences (NCATS), 2009)
The campaign covered roughly 230,000 compounds. About 3,600 (1.6%) were called active. Inconclusive results, whose numbers are uncertain, are shown with a selection of clear calls. The call rests on the fitted dose curve; in most records, active means well fitted inhibition curve with a large enough effect (not every such curve was filed as active); inconclusive means small, poorly fitted or top-dose-only effect, or another doubt; inactive means no such curve, though single readings can be large or run the other way. A potency beside an inconclusive call is a rough fit, not a confirmed value.

Molecular target: Lysine-specific demethylase 4E (Homo sapiens) (UniProt B2RXH2)
Test: qHTS Assay for Inhibitors of Human Jumonji Domain Containing 2E (JMJD2E)
Conditions: JMJD2E catalytic domain, FDH-coupled NADH fluorescence (FDH is formaldehyde dehydrogenase); series mostly up to 57.1 µM
Further: nearly all actives have a fitted effect of over 50% in size.
Potency means the concentration at half of the fitted maximal effect; tags describe the fitted curve by direction and shape.

Chain of UniProt B2RXH2 (B2RXH2 whole entry, looked up, the tested form may be a part): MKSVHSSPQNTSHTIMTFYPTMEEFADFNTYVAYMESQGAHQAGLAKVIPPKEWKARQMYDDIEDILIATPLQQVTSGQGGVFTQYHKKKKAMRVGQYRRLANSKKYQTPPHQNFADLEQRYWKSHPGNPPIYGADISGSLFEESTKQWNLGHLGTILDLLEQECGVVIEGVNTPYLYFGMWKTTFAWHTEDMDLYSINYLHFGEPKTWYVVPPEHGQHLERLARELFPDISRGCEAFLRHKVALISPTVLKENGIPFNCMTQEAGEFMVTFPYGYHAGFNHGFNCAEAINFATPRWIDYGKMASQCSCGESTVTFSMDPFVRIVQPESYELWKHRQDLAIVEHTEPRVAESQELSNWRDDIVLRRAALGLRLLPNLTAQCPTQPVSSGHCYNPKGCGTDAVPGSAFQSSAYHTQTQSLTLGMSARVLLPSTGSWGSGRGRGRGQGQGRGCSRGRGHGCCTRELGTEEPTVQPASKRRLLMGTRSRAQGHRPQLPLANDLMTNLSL

| Compound | Potency |
| --- | --- |
| CCc1ccc2[nH]c(=O)c(C(c3nnnn3CCOC)N3CCN(c4ccc(F)cc4)CC3)cc2c1 (centres undefined) | inconclusive: 39.8 µM [inhibitor, single point] |
| COc1ccc(CC(=O)NNC(=O)c2ccncc2)cc1 | inactive |
| COc1cccc(CN(C)CC(=O)Nc2ccccc2C(=O)Nc2ccccc2)c1OC | inconclusive: 39.8 µM [inhibitor, single point] |
| Cc1ccc(NC(=S)NNC(=O)c2cn(C)nc2C)cc1 | inactive |
| OCCCN1c2ccccc2Nc2nnc(-c3ccccc3)cc21 | inconclusive: 28.2 µM [inhibitor, single point] |
| CO/N=C\Cc1oc(=O)c(NC(=O)c2ccccc2)cc1C(=O)OC | inconclusive: 31.6 µM [inhibitor, single point] |
| CCCCc1nnc(SCCSc2nnc(CCCC)n2N)n1N | inactive |
| CCOC(=O)Nc1nnc(-c2ccc(OC)c(OC)c2)s1 | inconclusive: 11.2 µM [inhibitor, partial curve] |
| Fc1ccc(-c2cc(-c3cccs3)cc(-c3ccccc3)n2)cc1 | inconclusive: 28.2 µM [inhibitor, partial curve] |
| Cc1ccc(C)c(NC(=O)CCC(=O)N/N=C/c2ccc3c(c2)OCO3)c1 | inconclusive: 39.8 µM [inhibitor, single point] |
| Cc1ccccc1OCc1nc2c3c(ncn2n1)-c1ccccc1CC31CCCC1 | inconclusive: 6.31 µM [inhibitor, single point] |
| CNc1nc(-c2ccccc2)nc(-c2ccc(OC)cc2)c1C#N | inconclusive: 5.01 µM [inhibitor, full curve, poor fit] |
| O=C(C1CCN(c2ncnc3c2sc2cccc(F)c23)CC1)N1CCCC1 | inactive |
| CC(C)NCCOCCOc1ccc(Cl)cc1Br | inconclusive: 25.1 µM [inhibitor, single point] |
| COc1ccc(N/C=C\C(=O)c2ccc(Br)cc2)cc1OC | inactive |
| COc1ccc2[nH]c3c(NCCN(C(C)C)C(C)C)ncnc3c2c1 | inconclusive: 31.6 µM [inhibitor, partial curve] |
| COc1ccc(S(=O)(=O)Nc2cc(C)cc(C)n2)c2ccccc12 | inconclusive: 28.2 µM [inhibitor, single point] |
| COc1ccc(-c2cc(C(N)=O)nc(N3CCCCCC3)n2)cc1 | inconclusive: 25.1 µM [inhibitor, partial curve] |
| CC(C)N(C(=O)CN(C#N)c1nc(N(C)C)nc(N(C)C)n1)c1ccccc1 | inactive |
| c1ccc(Nc2nc(N3CCNCC3)nc(N3CCOCC3)n2)cc1 | inactive |
| O=C(CSc1nc2ccc(N3CCOCC3)cc2c(=O)n1CCc1ccccc1)NCC1CCCO1 (centres undefined) | inconclusive: 28.2 µM [inhibitor, partial curve] |
| O=C(CSc1nc2ccccc2c(=O)n1-c1ccc(SC(F)F)cc1)Nc1ccc(N2CCOCC2)cc1 | inconclusive: 28.2 µM [inhibitor, single point] |

| Compound | Potency |
| --- | --- |
| CC1=NN2C(=N)/C(=C\c3cc(C)n(-c4cccc(C)c4)c3C)C(=O)N=C2S1 | inconclusive: 31.6 µM [inhibitor, single point] |
| N#Cc1c(N)sc(=S)c2c1CCN(Cc1ccccc1)C2 | inconclusive: 28.2 µM [inhibitor, partial curve] |
| O=C(Nc1ccc(-c2cnco2)cc1)c1ccc(Cl)cc1 | inconclusive: 35.5 µM [inhibitor, single point] |
| CCc1ccc2nc(N3CCN(C)CC3)c(C#N)cc2c1 | inconclusive: 25.1 µM [inhibitor, partial curve] |
| CCN(CC)S(=O)(=O)c1cccc(C(=O)N/N=C/c2cccc(O)c2O)c1 | inactive |
| Cc1cnc(NC(=O)c2cc3c(C)nn(Cc4ccccc4Cl)c3s2)s1 | inconclusive: 22.4 µM [inhibitor, partial curve] |
| CCC(c1nnnn1Cc1ccccc1)N1CCN(c2ccc(OC)cc2)CC1 (centres undefined) | inactive |
| CCCCNC(=O)C1CCN(c2nc(C)cc(C)n2)CC1 | inconclusive: 28.2 µM [inhibitor, partial curve] |
| O=C1c2c([N+](=O)[O-])cc([N+](=O)[O-])cc2S(=O)N1Cc1ccccc1 (centres undefined) | inconclusive: 28.2 µM [inhibitor, single point] |
| O=C1N(Cc2cccnc2)C[C@@H]2C[C@@H](c3ccc4nsnc4c3)N3CCC[C@@]123 | inconclusive: 31.6 µM [inhibitor, single point] |
| COc1cc(C2CC(=O)C3=C(C2)Nc2ncnn2C3c2cccs2)cc(OC)c1OC (centres undefined) | inconclusive: 39.8 µM [inhibitor, single point] |
| Cc1ccc(C)c(Oc2ncnc(N)c2[N+](=O)[O-])c1 | inactive |
| CS(=O)(=O)c1sc2nc(-c3cccs3)cc(-c3ccccc3)c2c1N | inconclusive: 25.1 µM [inhibitor, partial curve] |
| C/C(=C\c1ccco1)C1C(C#N)=C(N)Oc2n[nH]c(-c3ccc(C)cc3)c21 (centres undefined) | inactive |
| O=C(CCl)Nc1ccccc1C(=O)NCc1ccccc1 | inconclusive: 25.1 µM [inhibitor, single point] |
| CC12CCCCC1N(O)C(=O)C(=O)N2O (centres undefined) | inconclusive: 31.6 µM [inhibitor, single point] |
| CC1(C)C(=O)C2(CCCCC2)C(=O)OC1C(=O)c1ccccc1 (centres undefined) | inactive |
| COCc1cc(C)nc(SCC(=O)Oc2ccc(Cl)cc2)c1C#N | inconclusive: 28.2 µM [inhibitor, partial curve] |
| O=C1Nc2ccc([N+](=O)[O-])cc2OC1CCN1CCN(Cc2ccc3c(c2)OCO3)CC1 (centres undefined) | inactive |
| COc1ccc(C(=O)N/N=C/c2sc(N3CCOCC3)nc2-c2ccccc2)cc1OC | inconclusive: 28.2 µM [inhibitor, partial curve] |
| CCC(C)[C@H](NC(=O)OC(C)(C)C)C(=O)N/N=C/C1=Cc2ccccc2OC1 (some centres undefined) | inconclusive: 28.2 µM [inhibitor, partial curve] |
| O=C(Oc1ccc2c3c(c(=O)oc2c1)CCCC3)c1ccco1 | inconclusive: 28.2 µM [inhibitor, partial curve] |
